{
  "source": "patent US20230398182A1",
  "about": "(ACCELERON PHARMA, published 2023)",
  "binders": {"B1": {"name": "hTβRII-hFc (Fc fusion)", "chain": "TIPPHVQKSDVEMEAQKDEIICPSCNRTAHPLRHINNDMIVTDNNGAVKFPQLCKFCDVRFSTCDNQKSCMSNCSITSICEKPQEVCVAVWRKNDENITLETVCHDPKLPYHDFILEDAASPKCIMKEKKKPGETFFMCSCSSDECNDNIIFSEEYNTSNPDTG[human IgG1 Fc and a few adjoining residues left out]", "notes": "88 lacks the C-terminal lysine; Expressed in CHO cells; also called TβRII-Fc fusion protein construct with TGGG linker"}, "B2": {"name": "hTβRII (G4S)5-hFc (Fc fusion)", "chain": "TIPPHVQKSDVEMEAQKDEIICPSCNRTAHPLRHINNDMIVTDNNGAVKFPQLCKFCDVRFSTCDNQKSCMSNCSITSICEKPQEVCVAVWRKNDENITLETVCHDPKLPYHDFILEDAASPKCIMKEKKKPGETFFMCSCSSDECNDNIIFSEEYNTSNPDTGGGGSGGGGSGGGGSGGGGSGGG[human IgG1 Fc and a few adjoining residues left out]", "notes": "75 lacks the C-terminal lysine; Expressed in CHO cells"}, "B3": {"name": "hTβRII (G4S)6-hFc (Fc fusion)", "chain": "TIPPHVQKSDVEMEAQKDEIICPSCNRTAHPLRHINNDMIVTDNNGAVKFPQLCKFCDVRFSTCDNQKSCMSNCSITSICEKPQEVCVAVWRKNDENITLETVCHDPKLPYHDFILEDAASPKCIMKEKKKPGETFFMCSCSSDECNDNIIFSEEYNTSNPDTGGGGSGGGGSGGGGSGGGGSGGGGSGGG[human IgG1 Fc and a few adjoining residues left out]", "notes": "76 lacks the C-terminal lysine; Expressed in CHO cells"}, "B4": {"name": "hTβRII (G4S)3-hFc (Fc fusion)", "chain": "TIPPHVQKSDVEMEAQKDEIICPSCNRTAHPLRHINNDMIVTDNNGAVKFPQLCKFCDVRFSTCDNQKSCMSNCSITSICEKPQEVCVAVWRKNDENITLETVCHDPKLPYHDFILEDAASPKCIMKEKKKPGETFFMCSCSSDECNDNIIFSEEYNTSNPDTGGGGSGGGGSGGG[human IgG1 Fc and a few adjoining residues left out]", "notes": "68 lacks the C-terminal lysine; Expressed in CHO cells"}, "B5": {"name": "hTβRII (G4S)4-hFc (Fc fusion)", "chain": "TIPPHVQKSDVEMEAQKDEIICPSCNRTAHPLRHINNDMIVTDNNGAVKFPQLCKFCDVRFSTCDNQKSCMSNCSITSICEKPQEVCVAVWRKNDENITLETVCHDPKLPYHDFILEDAASPKCIMKEKKKPGETFFMCSCSSDECNDNIIFSEEYNTSNPDTGGGGSGGGGSGGGGSGGG[human IgG1 Fc and a few adjoining residues left out]", "notes": "69 lacks the C-terminal lysine; Expressed in CHO cells"}, "B6": {"name": "hTβRII extended hinge-hFc (Fc fusion)", "chain": "TIPPHVQKSDVEMEAQKDEIICPSCNRTAHPLRHINNDMIVTDNNGAVKFPQLCKFCDVRFSTCDNQKSCMSNCSITSICEKPQEVCVAVWRKNDENITLETVCHDPKLPYHDFILEDAASPKCIMKEKKKPGETFFMCSCSSDECNDNIIFSEEYNTSNPDTGGG[human IgG1 Fc left out]", "notes": "71 lacks the C-terminal lysine; Expressed in CHO cells"}},
  "key": {"Human TGFβ1 [1]": {"molecular_target": "T1, Human TGFβ1 (human, UniProt P01137 part only)", "experiment": "cell-based or functional assay"}, "Human TGFβ1 [2]": {"molecular_target": "T1, Human TGFβ1", "T1 sequence (P01137 279-390 limits assumed)": "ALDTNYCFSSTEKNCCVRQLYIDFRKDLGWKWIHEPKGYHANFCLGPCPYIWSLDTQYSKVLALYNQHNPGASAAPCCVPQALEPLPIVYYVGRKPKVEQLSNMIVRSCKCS", "experiment": "Biacore (surface plasmon resonance)"}, "Human TGFβ1 [3]": {"molecular_target": "T1, Human TGFβ1", "experiment": "cell-based or functional assay", "remark": "listed apart in the source"}, "Human TGFβ1 [4]": {"molecular_target": "T1, Human TGFβ1", "experiment": "cell-based or functional assay", "remark": "listed apart in the source"}},
  "note": "Like-named read-outs stand apart in the source and are kept apart here.",
  "data": [
    {"binder": "B1", "values": [
      {"measurement": "IC50, inhibition of TGFβ1-induced pGL3(CAGA)12 luciferase reporter in A549 cells", "setting": "Human TGFβ1 [1]", "value": 7.69, "unit": "nM"}
    ]},
    {"binder": "B2", "values": [
      {"measurement": "Kd", "setting": "Human TGFβ1 [2]", "value": 8.8, "unit": "pM"},
      {"measurement": "IC50, inhibition of TGFβ1-induced pGL3(CAGA)12 luciferase reporter in A549 cells", "setting": "Human TGFβ1 [3]", "value": 30, "unit": "pM"},
      {"measurement": "IC50 (read off the curve), TGFβ1 (640pg/mL)-induced pGL3(CAGA)12 luciferase reporter in A549 cells", "setting": "Human TGFβ1 [4]", "value": "~3", "unit": "ng/mL"}
    ]},
    {"binder": "B3", "values": [
      {"measurement": "Kd", "setting": "Human TGFβ1 [2]", "value": 3.8, "unit": "pM"},
      {"measurement": "IC50, inhibition of TGFβ1-induced pGL3(CAGA)12 luciferase reporter in A549 cells", "setting": "Human TGFβ1 [3]", "value": 20, "unit": "pM"},
      {"measurement": "IC50 (read off the curve), TGFβ1 (640pg/mL)-induced pGL3(CAGA)12 luciferase reporter in A549 cells", "setting": "Human TGFβ1 [4]", "value": "~2", "unit": "ng/mL"}
    ]},
    {"binder": "B4", "values": [
      {"measurement": "IC50, inhibition of TGFβ1-induced pGL3(CAGA)12 luciferase reporter in A549 cells", "setting": "Human TGFβ1 [1]", "value": 0.22, "unit": "nM"}
    ]},
    {"binder": "B5", "values": [
      {"measurement": "IC50, inhibition of TGFβ1-induced pGL3(CAGA)12 luciferase reporter in A549 cells", "setting": "Human TGFβ1 [1]", "value": 70, "unit": "pM"}
    ]},
    {"binder": "B6", "values": [
      {"measurement": "IC50, inhibition of TGFβ1-induced pGL3(CAGA)12 luciferase reporter in A549 cells", "setting": "Human TGFβ1 [1]", "value": 5.67, "unit": "nM"}
    ]}
  ]
}
